Experimental data from the supplement of paper PMC10369915.
The list shows a part of the results. No stated cut-off is given here; in the data, active = 3.2 or more and inactive = the rest. Only a few entries rise above the background.

Assays:
Assay in all cases: enrichment score (SH2-bound / input frequency) (ratio); bacterial display of known human phosphotyrosine sites (pTyr-Var adds point mutants) read by sequencing; higher = stronger binding; tyrosines were phosphorylated by kinases first
Conditions in all cases: peptide library: pTyr-Var
SHP2 C-SH2 domain E139D = molecular target: SHP2 C-SH2 domain E139D
[1] = molecular target: SHP2 C-SH2 domain wild-type
SHP2 N-SH2 domain L43F = molecular target: SHP2 N-SH2 domain L43F
SHP2 N-SH2 domain T42A = molecular target: SHP2 N-SH2 domain T42A
SHP2 N-SH2 domain T52S = molecular target: SHP2 N-SH2 domain T52S
[2] = molecular target: SHP2 N-SH2 domain wild-type

Measured: enrichment score
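Further: displayed peptides selected on beads carrying the immobilized SH2 domain, with library peptides lacking any tyrosine serving as negative controls.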

SQETFYRVSNM [ABCD1_Y181_Q178E_YF]
inactive: SHP2 C-SH2 domain E139D 0.78 | [1] 0.666 | SHP2 N-SH2 domain L43F 0.763 | SHP2 N-SH2 domain T42A 0.713 | SHP2 N-SH2 domain T52S 0.557 | [2] 0.862

SQQTFYPVSNM [ABCD1_Y181_R182P_YF]
inactive: SHP2 C-SH2 domain E139D 0.968 | [1] 0.813 | SHP2 N-SH2 domain L43F 0.716 | SHP2 N-SH2 domain T42A 0.875 | SHP2 N-SH2 domain T52S 0.769 | [2] 0.847

KGELRYMHSRV [ABCD1_Y281]
inactive: SHP2 C-SH2 domain E139D 1.65 | [1] 1.44 | SHP2 N-SH2 domain L43F 1.37 | SHP2 N-SH2 domain T42A 1.18 | SHP2 N-SH2 domain T52S 1.23 | [2] 1.39

KRELRYMHSRV [ABCD1_Y281_G277R]
inactive: SHP2 C-SH2 domain E139D 2.21 | [1] 1.79 | SHP2 N-SH2 domain L43F 1.82 | SHP2 N-SH2 domain T42A 1.54 | SHP2 N-SH2 domain T52S 2.21 | [2] 1.98

KWELRYMHSRV [ABCD1_Y281_G277W]
inactive: SHP2 C-SH2 domain E139D 1.31 | [1] 1.41 | SHP2 N-SH2 domain L43F 1.35 | SHP2 N-SH2 domain T42A 1.29 | SHP2 N-SH2 domain T52S 1.45 | [2] 1.68

RVGNMYMRGLS [ABCG8_Y209_V210M]
inactive: SHP2 C-SH2 domain E139D 1.49 | [1] 1.17 | SHP2 N-SH2 domain L43F 1.17 | SHP2 N-SH2 domain T42A 1.25 | SHP2 N-SH2 domain T52S 0.809 | [2] 1.18

LGRKLYSIATP [ABHD12_Y345_A349T]
inactive: SHP2 C-SH2 domain E139D 0.736 | [1] 0.457 | SHP2 N-SH2 domain L43F 0.776 | SHP2 N-SH2 domain T42A 0.62 | SHP2 N-SH2 domain T52S 0.756 | [2] 0.753

RNAAEYPLSSG [ABL1_Y139_L140P]
inactive: SHP2 C-SH2 domain E139D 0.709 | [1] 0.505 | SHP2 N-SH2 domain L43F 0.532 | SHP2 N-SH2 domain T42A 0.625 | SHP2 N-SH2 domain T52S 0.603 | [2] 0.546

SISLKYEGRVY [ABL1_Y167_R166K]
inactive: SHP2 C-SH2 domain E139D 1.16 | [1] 1.09 | SHP2 N-SH2 domain L43F 1.06 | SHP2 N-SH2 domain T42A 0.938 | SHP2 N-SH2 domain T52S 1.03 | [2] 1.14

CPPKVYELMRA [ABL2_Y515]
inactive: SHP2 C-SH2 domain E139D 0.939 | [1] 0.934 | SHP2 N-SH2 domain L43F 1.06 | SHP2 N-SH2 domain T42A 0.75 | SHP2 N-SH2 domain T52S 1.06 | [2] 1.05

CPPKVYELMIA [ABL2_Y515_R519I]
inactive: SHP2 C-SH2 domain E139D 0.912 | [1] 0.84 | SHP2 N-SH2 domain L43F 0.93 | SHP2 N-SH2 domain T42A 0.727 | SHP2 N-SH2 domain T52S 0.924 | [2] 0.794

ALHRPYGCDVE [ABL2_Y80]
inactive: SHP2 C-SH2 domain E139D 0.897 | [1] 0.805 | SHP2 N-SH2 domain L43F 0.642 | SHP2 N-SH2 domain T42A 0.768 | SHP2 N-SH2 domain T52S 0.774 | [2] 0.845

ALHHPYGCDVE [ABL2_Y80_R78H]
inactive: SHP2 C-SH2 domain E139D 1.26 | [1] 1.58 | SHP2 N-SH2 domain L43F 1.37 | SHP2 N-SH2 domain T42A 1.22 | SHP2 N-SH2 domain T52S 1.38 | [2] 1.33

PSAEGYQDVRD [ABLIM1_Y439]
inactive: SHP2 C-SH2 domain E139D 0.522 | [1] 0.648 | SHP2 N-SH2 domain L43F 0.537 | SHP2 N-SH2 domain T42A 0.328 | SHP2 N-SH2 domain T52S 0.382 | [2] 0.654

LEKRAYICAHP [ACAD9_Y611]
inactive: SHP2 C-SH2 domain E139D 0.7 | [1] 0.977 | SHP2 N-SH2 domain L43F 0.922 | SHP2 N-SH2 domain T42A 0.757 | SHP2 N-SH2 domain T52S 0.627 | [2] 1.23

HEKRAYICAHP [ACAD9_Y611_L606H]
inactive: SHP2 C-SH2 domain E139D 0.689 | [1] 0.795 | SHP2 N-SH2 domain L43F 0.765 | SHP2 N-SH2 domain T42A 0.821 | SHP2 N-SH2 domain T52S 1.01 | [2] 0.709

GRRNTYYASIA [ACADM_Y352]
inactive: SHP2 C-SH2 domain E139D 0.271 | [1] 0.234 | SHP2 N-SH2 domain L43F 0.2 | SHP2 N-SH2 domain T42A 0.326 | SHP2 N-SH2 domain T52S 0.227 | [2] 0.222

GRRNTYFASIA [ACADM_Y352_YF]
inactive: SHP2 C-SH2 domain E139D 0.383 | [1] 0.241 | SHP2 N-SH2 domain L43F 0.298 | SHP2 N-SH2 domain T42A 0.309 | SHP2 N-SH2 domain T52S 0.388 | [2] 0.368

RRNTYYASIAK [ACADM_Y353]
inactive: SHP2 C-SH2 domain E139D 0.308 | [1] 0.253 | SHP2 N-SH2 domain L43F 0.234 | SHP2 N-SH2 domain T42A 0.0696 | SHP2 N-SH2 domain T52S 0.0731 | [2] 0.194

RRNTFYASIAK [ACADM_Y353_YF]
inactive: SHP2 C-SH2 domain E139D 0.217 | [1] 0.156 | SHP2 N-SH2 domain L43F 0.321 | SHP2 N-SH2 domain T42A 0.277 | SHP2 N-SH2 domain T52S 0.228 | [2] 0.263

DKTGEYPVPLT [ACADM_Y73_I78T]
inactive: SHP2 C-SH2 domain E139D 0.605 | [1] 0.502 | SHP2 N-SH2 domain L43F 0.607 | SHP2 N-SH2 domain T42A 0.734 | SHP2 N-SH2 domain T52S 0.689 | [2] 0.715

ASMAKYFASGI [ACADSB_Y372_E376G_YF]
inactive: SHP2 C-SH2 domain E139D 0.663 | [1] 0.632 | SHP2 N-SH2 domain L43F 0.634 | SHP2 N-SH2 domain T42A 0.666 | SHP2 N-SH2 domain T52S 0.646 | [2] 0.692

MSNVPYVMNRG [ACAT1_Y161]
inactive: SHP2 C-SH2 domain E139D 0.848 | [1] 0.704 | SHP2 N-SH2 domain L43F 0.851 | SHP2 N-SH2 domain T42A 0.6 | SHP2 N-SH2 domain T52S 0.726 | [2] 0.809

PIAPVYAPSMV [ACAT1_Y331_A333P]
inactive: SHP2 C-SH2 domain E139D 1.16 | [1] 1.04 | SHP2 N-SH2 domain L43F 0.917 | SHP2 N-SH2 domain T42A 0.774 | SHP2 N-SH2 domain T52S 0.967 | [2] 0.929

EVKEAYMGSVL [ACAT1_Y90_N93S]
inactive: SHP2 C-SH2 domain E139D 0.602 | [1] 0.579 | SHP2 N-SH2 domain L43F 0.66 | SHP2 N-SH2 domain T42A 0.614 | SHP2 N-SH2 domain T52S 0.566 | [2] 0.602

NMSRIYSTTKV [ACE_Y151_A154T]
inactive: SHP2 C-SH2 domain E139D 0.772 | [1] 0.822 | SHP2 N-SH2 domain L43F 0.573 | SHP2 N-SH2 domain T42A 0.497 | SHP2 N-SH2 domain T52S 0.578 | [2] 0.866

RAHARYCADAC [ACOT4_Y52_R57C]
inactive: SHP2 C-SH2 domain E139D 1.08 | [1] 1.1 | SHP2 N-SH2 domain L43F 0.959 | SHP2 N-SH2 domain T42A 0.909 | SHP2 N-SH2 domain T52S 1.01 | [2] 1.02

SNKLTYGTVVF [ACOX1_Y275_M278V]
active: SHP2 N-SH2 domain L43F 5.53 | SHP2 N-SH2 domain T42A 5.03 | SHP2 N-SH2 domain T52S 6.31
inactive: SHP2 C-SH2 domain E139D 1.2 | [1] 2.42 | [2] 2.49

MIAIRYSHSRR [ACOXL_Y260_T255M]
inactive: SHP2 C-SH2 domain E139D 0.243 | [1] 0.292 | SHP2 N-SH2 domain L43F 0.324 | SHP2 N-SH2 domain T42A 0.22 | SHP2 N-SH2 domain T52S 0.26 | [2] 0.291

IIEDPYFGNDF [ACP1_Y132_S137F_YF]
inactive: SHP2 C-SH2 domain E139D 0.897 | [1] 0.942 | SHP2 N-SH2 domain L43F 0.843 | SHP2 N-SH2 domain T42A 0.993 | SHP2 N-SH2 domain T52S 0.976 | [2] 1.22

IEDPYYGNDSD [ACP1_Y133]
inactive: SHP2 C-SH2 domain E139D 0.439 | [1] 0.558 | SHP2 N-SH2 domain L43F 0.523 | SHP2 N-SH2 domain T42A 0.591 | SHP2 N-SH2 domain T52S 0.562 | [2] 0.564

AAARPYHIQKW [ACSBG1_Y677]
inactive: SHP2 C-SH2 domain E139D 1.55 | [1] 1.29 | SHP2 N-SH2 domain L43F 1.31 | SHP2 N-SH2 domain T42A 1.32 | SHP2 N-SH2 domain T52S 1.5 | [2] 1.16

TLLERYGMTKI [ACSF3_Y355_E359K]
inactive: SHP2 C-SH2 domain E139D 1.21 | [1] 0.857 | SHP2 N-SH2 domain L43F 0.805 | SHP2 N-SH2 domain T42A 0.783 | SHP2 N-SH2 domain T52S 0.812 | [2] 1.01

INASGYRIGPA [ACSM1_Y477]
inactive: SHP2 C-SH2 domain E139D 0.799 | [1] 0.787 | SHP2 N-SH2 domain L43F 0.795 | SHP2 N-SH2 domain T42A 0.651 | SHP2 N-SH2 domain T52S 0.836 | [2] 0.868

HNVPIYEGFGL [ACTA1_Y168_A172G_YF]
inactive: SHP2 C-SH2 domain E139D 1.47 | [1] 0.898 | SHP2 N-SH2 domain L43F 1.34 | SHP2 N-SH2 domain T42A 1.1 | SHP2 N-SH2 domain T52S 1.11 | [2] 0.954

HNMPIYEGYAL [ACTA1_Y168_V165M]
inactive: SHP2 C-SH2 domain E139D 0.84 | [1] 0.947 | SHP2 N-SH2 domain L43F 0.692 | SHP2 N-SH2 domain T42A 0.701 | SHP2 N-SH2 domain T52S 0.902 | [2] 0.75

HNMPIYEGFAL [ACTA1_Y168_V165M_YF]
inactive: SHP2 C-SH2 domain E139D 1.42 | [1] 0.796 | SHP2 N-SH2 domain L43F 1.14 | SHP2 N-SH2 domain T42A 1.12 | SHP2 N-SH2 domain T52S 1.16 | [2] 1.04
